Measured values as given in PubChem BioAssay AID1347073 (National Center for Advancing Translational Sciences (NCATS), 2019).
About 200 (0.44%) of roughly 45,000 compounds were called active. Another 7% or so got no clear call; they are omitted. The call rests on the fitted dose curve; in most records, active means well fitted activation curve with a large enough effect; inconclusive means small, poorly fitted or top-dose-only effect; inactive means no such curve, though single readings can be large or run the other way. Some of the results follow.

Assay: qHTS of TDP-43 Inhibitors: NCGC Sytravon Library Screen; further: 0% is about no effect; nearly all actives have a fitted effect of over 55% in size
Settings: yeast TDP-43 toxicity rescue, BacTiter-Glo growth, 24 h; series mostly up to 46.1 µM; growth rescue (activation): at the top concentration
Outline: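 TDP-43-expressing yeast, pregrown in raffinose, seeded at OD600 0.02 in galactose medium with compound for 24 hr at 30 deg C. Growth read by BacTiter-Glo luminescence, so rescue of toxicity appears as activation.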

**Q.** Which “growth rescue (activation)” value does the source give for `O=C(NNC(=S)Nc1ccc(F)cc1)[C@H]1C[C@@H]1c1ccccc1` here?
**A.** Its value is inactive: 19.1%.

**Q.** Which “growth rescue (activation)” value does the source give for `O=C(C1=NN[C@@H]2C(=O)N(c3cccc(F)c3)C(=O)[C@H]12)C(c1ccccc1)c1ccccc1` here?
**A.** Its value is inactive: 2.91%.

**Q.** For `S=c1nc(C2COc3ccccc3O2)[nH][nH]1` (stereo not drawn), which “growth rescue (activation)” value is on record?
**A.** The value was inactive: 12.7%.

**Q.** With `CC(C)CC1NC(=O)N(CC(=O)Nc2ccc(OC(F)F)cc2)C1=O` (stereo not drawn) as the molecule, how does the “growth rescue (activation)” value read?
**A.** The value was inactive: -15.9%.

**Q.** With `COc1ccc2c(c1)-c1nc(NC(=O)c3cc(Cl)ccc3OC)sc1CC2` as the molecule, how does the “growth rescue (activation)” value read?
**A.** Its value is inactive: 4.49%.

**Q.** For `Cc1ccc(S(=O)(=O)N2CCCCC2)cc1C(=O)Nc1cccnc1`, which “growth rescue (activation)” value is on record?
**A.** The value was inactive: 6.37%.

**Q.** With `O=C(Nc1ccc(N2CCOCC2)cc1)c1ccc([N+](=O)[O-])cc1` as the molecule, how does the “growth rescue (activation)” value read?
**A.** Its value is inactive: 6.47%.

**Q.** Which “growth rescue (activation)” value does the source give for `OC[C@@H]1CN(Cc2cccnc2)C[C@H](n2cnc3c(N4CCOCC4)ncnc32)O1` here?
**A.** The value was inactive: -10.7%.

**Q.** For `OCCNC(=S)NCCc1ccccc1`, which “growth rescue (activation)” value is on record?
**A.** Its value is inactive: -4.78%.

**Q.** With `CC1(C)C2CCC1(CS(=O)(=O)N1CCCC1C(=O)O)C(=O)C2` (stereo not drawn) as the molecule, how does the “growth rescue (activation)” value read?
**A.** The value was inactive: 8.96%.

**Q.** With `CCCNC(=O)C1(C)CCN(C(=O)c2ccc(F)c(Cl)c2)C1` (stereo not drawn) as the molecule, how does the “growth rescue (activation)” value read?
**A.** Its value is inactive: -4.83%.

**Q.** Which “growth rescue (activation)” value does the source give for `Cc1ccc(Oc2nc3ccccn3c(=O)c2/C=C(\C#N)C(=O)Nc2c(C)n(C)n(-c3ccccc3)c2=O)cc1` here?
**A.** Its value is inactive: 4.58%.

**Q.** Which “growth rescue (activation)” value does the source give for `O=C(N/N=C/c1ccc(O)cc1O)C(=O)N/N=C/c1ccc(O)cc1O` here?
**A.** Its value is inactive: -4.88%.

**Q.** Which “growth rescue (activation)” value does the source give for `Cc1ccc(-c2nn(-c3ccccc3)cc2/C=N/O)cc1` here?
**A.** The value was inactive: 19.3%.

**Q.** For `O=C(COC(=O)CCCNC(=O)c1ccc(Cl)cc1)Nc1cc(Cl)c(Cl)cc1Cl`, which “growth rescue (activation)” value is on record?
**A.** The value was inactive: 7.17%.

**Q.** For `O=C(CSc1n[nH]c(=O)[nH]c1=O)c1ccc(Cl)cc1Cl`, which “growth rescue (activation)” value is on record?
**A.** Its value is inactive: -2.28%.

**Q.** For `O=C(OCCN=C1NS(=O)(=O)c2ccccc21)c1cccc([N+](=O)[O-])c1`, which “growth rescue (activation)” value is on record?
**A.** The value was inactive: 12.4%.

**Q.** Which “growth rescue (activation)” value does the source give for `O=C(O)COc1ccccc1C=NNc1ccc([N+](=O)[O-])cc1S(=O)(=O)Nc1ccc(Cl)cc1` here?
**A.** Its value is inactive: 16.7%.

**Q.** With `CCSc1nnc(-c2cc(Br)ccc2N)c(=O)[nH]1` as the molecule, how does the “growth rescue (activation)” value read?
**A.** Its value is inactive: 8.96%.

**Q.** Which “growth rescue (activation)” value does the source give for `CCc1ccccc1NC(=O)C1CCN(C(=O)c2ccc([N+](=O)[O-])cc2)CC1` here?
**A.** Its value is inactive: 5.26%.

**Q.** With `COc1ccc(NC(=O)CCC(=O)Nc2ccc3nc(N4CCOCC4)cc(C)c3c2)c(OC)c1` as the molecule, how does the “growth rescue (activation)” value read?
**A.** The value was inactive: -1.01%.

**Q.** For `O=S(=O)(/N=C(/Nc1ccccn1)c1ccc(Cl)cc1)c1ccc(Cl)cc1`, which “growth rescue (activation)” value is on record?
**A.** The value was inactive: 25.2%.

**Q.** Which “growth rescue (activation)” value does the source give for `O=C(c1cc(-c2ccc(Br)cc2)on1)N1CCCCCC1` here?
**A.** Its value is inactive: 7.63%.

**Q.** For `CCOC(=O)C1(Cc2cccc(OC)c2)CCN(Cc2cccn2-c2nccs2)CC1`, which “growth rescue (activation)” value is on record?
**A.** The value was inactive: -13.7%.

**Q.** Which “growth rescue (activation)” value does the source give for `CC(Oc1ccccc1)C(=O)NC1C(=O)N2C1SC(C)(C)C2C(=O)O` (stereo not drawn) here?
**A.** Its value is inactive: -16.2%.

**Q.** Which “growth rescue (activation)” value does the source give for `O=C(Nc1nc2ccccc2s1)c1ccc2c(c1)OCO2` here?
**A.** Its value is inactive: -6.85%.

**Q.** With `O=C(Nc1c(-c2ccccc2)nc2ccc(Cl)cn12)c1cccs1` as the molecule, how does the “growth rescue (activation)” value read?
**A.** Its value is inactive: -1.5%.

**Q.** With `O=C(COC(=O)CCCSc1nc2ccccc2[nH]1)Nc1ccc(Cl)cc1` as the molecule, how does the “growth rescue (activation)” value read?
**A.** Its value is inactive: -5.04%.

**Q.** For `CCOC(=O)C1CCCN(c2nc3ccccc3nc2C(C#N)C(=O)OCC)C1` (stereo not drawn), which “growth rescue (activation)” value is on record?
**A.** Its value is inactive: -1.26%.

**Q.** Which “growth rescue (activation)” value does the source give for `Cc1ccc(C(=O)NCCCNC(=O)COc2ccc(Cl)cc2)cn1` here?
**A.** Its value is inactive: 2.8%.

**Q.** For `O=C(NCc1ccccc1)C1(c2cccc(F)c2)CCCC1`, which “growth rescue (activation)” value is on record?
**A.** The value was inactive: 24.1%.

**Q.** Which “growth rescue (activation)” value does the source give for `Cc1c(NC(=O)c2ccc(-c3ccc([N+](=O)[O-])cc3Cl)o2)c(=O)n(-c2ccccc2)n1C` here?
**A.** Its value is inactive: 0.857%.

**Q.** For `COc1ccc(C(NC(=O)C2CCN(CCOc3ccc(Cl)cc3Cl)CC2)c2cccs2)cc1` (stereo not drawn), which “growth rescue (activation)” value is on record?
**A.** Its value is inactive: -0.919%.

**Q.** With `CCOC(=O)/C(C#N)=C/C=C1/C=CC=CN1C` as the molecule, how does the “growth rescue (activation)” value read?
**A.** Its value is inactive: -2.81%.

**Q.** With `N#C/C(=C\N1CCOCC1)C(N)=O` as the molecule, how does the “growth rescue (activation)” value read?
**A.** Its value is inactive: -4.29%.

**Q.** Which “growth rescue (activation)” value does the source give for `CCNS(=O)(=O)c1ccc(NC(=O)c2c(-c3ccccc3)noc2C)cc1` here?
**A.** The value was inactive: 4.34%.

**Q.** Which “growth rescue (activation)” value does the source give for `Nc1cccc(-n2nnnc2CN2CCOCC2)c1` here?
**A.** Its value is inactive: -4.42%.

**Q.** With `COC1CCN(C(=O)CC2C(=O)NCCN2CC2CCCCC2)CC1` (stereo not drawn) as the molecule, how does the “growth rescue (activation)” value read?
**A.** The value was inactive: 1.82%.

**Q.** For `CCOC(=O)C1=C(CS(=O)(=O)c2ccccc2)NC(=O)NC1c1cccc(OC)c1` (stereo not drawn), which “growth rescue (activation)” value is on record?
**A.** Its value is inactive: -12.4%.

**Q.** With `Cc1ccc(OCC(=O)Nc2ccc(S(=O)(=O)N3CCCC3)cc2)cc1` as the molecule, how does the “growth rescue (activation)” value read?
**A.** Its value is inactive: 15.7%.

**Q.** For `CC(C)Nc1ncnc2c1ncn2[C@H]1CN(Cc2ccc(F)cc2)C[C@@H](CO)O1`, which “growth rescue (activation)” value is on record?
**A.** The value was inactive: 10.1%.

**Q.** With `Cc1nn(-c2ccccc2)c2c1C(c1cccc([N+](=O)[O-])c1)N(c1ccccc1)C(=O)N2` (stereo not drawn) as the molecule, how does the “growth rescue (activation)” value read?
**A.** Its value is inactive: -1.22%.

**Q.** Which “growth rescue (activation)” value does the source give for `CNc1ccc(-c2cccc(C(=O)N3CCOCC3)c2)cn1` here?
**A.** The value was inactive: 3.76%.

**Q.** With `CC(=O)N1Cc2ccccc2CC1C(=O)NCc1ccccc1F` (stereo not drawn) as the molecule, how does the “growth rescue (activation)” value read?
**A.** Its value is inactive: 0.407%.

**Q.** For `CCOC(=O)c1sc(NC(=O)c2ccc(=O)[nH]c2)nc1C`, which “growth rescue (activation)” value is on record?
**A.** Its value is inactive: -2.21%.

**Q.** With `CN1C=CC=C/C1=C1\SC(=S)N(c2ccccc2)C1=O` as the molecule, how does the “growth rescue (activation)” value read?
**A.** Its value is inactive: 7.34%.

**Q.** With `O=C(/C=C/c1ccc(Cl)cc1)Nc1ccccc1N1CCOCC1` as the molecule, how does the “growth rescue (activation)” value read?
**A.** Its value is inactive: 16.4%.

**Q.** For `CCNc1ccc(S(=O)(=O)N(C)C)cc1NCC(=O)Nc1ccccc1Cl`, which “growth rescue (activation)” value is on record?
**A.** Its value is inactive: -19%.

**Q.** With `COC(=O)c1cc(COC(=O)COc2ccc(C)c(C)c2)oc1C` as the molecule, how does the “growth rescue (activation)” value read?
**A.** Its value is inactive: -5.75%.

**Q.** For `CCOc1ccc(N2C(=O)S/C(=C\c3cccn3C)C2=O)cc1`, which “growth rescue (activation)” value is on record?
**A.** Its value is inactive: 14%.

**Q.** With `CC(C)NC(=O)C(c1ccc(F)cc1)N(C(=O)CCC(=O)Nc1ccccn1)c1cccc(F)c1` (stereo not drawn) as the molecule, how does the “growth rescue (activation)” value read?
**A.** Its value is inactive: -10.4%.

**Q.** For `COc1cccc(NC(=O)Cc2nnc(SCC(=O)NC3CCCCC3)n2C)c1`, which “growth rescue (activation)” value is on record?
**A.** The value was inactive: -58.6%.

**Q.** Which “growth rescue (activation)” value does the source give for `CS(=O)(=O)Cc1ccc(C(=O)NNC(=O)c2cc(-c3ccccc3)n[nH]2)cc1` here?
**A.** The value was inactive: 3.35%.
